The values that follow come from article PMC2970546.

Common to all, as to test: two-hybrid; LexA-septin bait (modified pBTM116) in yeast L40 screened against human fetal brain and human leukocyte cDNA libraries (pACT2); minimal medium without Trp, Leu, His, with 5 mM 3-AT; every clone confirmed one-to-one with its bait by beta-galactosidase filter assay, empty bait vector as control
Experiment [1] addresses T1, human septin 9, transcript variant 3, protein isoform c, full length (human) (UniProt Q9UHD8).
T1 sequence: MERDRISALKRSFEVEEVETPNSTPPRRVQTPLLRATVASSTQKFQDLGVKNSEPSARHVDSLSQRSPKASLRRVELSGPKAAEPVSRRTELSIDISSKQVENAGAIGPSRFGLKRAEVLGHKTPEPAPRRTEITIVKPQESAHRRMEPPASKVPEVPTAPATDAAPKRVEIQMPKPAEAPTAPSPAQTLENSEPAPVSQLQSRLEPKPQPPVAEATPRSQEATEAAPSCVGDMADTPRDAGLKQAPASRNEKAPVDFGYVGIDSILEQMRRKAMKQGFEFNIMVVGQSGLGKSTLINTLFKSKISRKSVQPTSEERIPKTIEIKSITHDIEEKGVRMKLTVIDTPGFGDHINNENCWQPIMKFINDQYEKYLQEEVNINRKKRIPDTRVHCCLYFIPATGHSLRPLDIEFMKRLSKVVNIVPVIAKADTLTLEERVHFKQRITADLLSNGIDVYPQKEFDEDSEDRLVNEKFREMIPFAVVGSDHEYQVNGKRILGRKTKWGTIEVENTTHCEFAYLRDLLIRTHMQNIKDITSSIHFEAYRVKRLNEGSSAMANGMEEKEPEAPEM

Experiment [2] concerns the target T2, human septin 2 (human) (UniProt Q15019).
T2 sequence: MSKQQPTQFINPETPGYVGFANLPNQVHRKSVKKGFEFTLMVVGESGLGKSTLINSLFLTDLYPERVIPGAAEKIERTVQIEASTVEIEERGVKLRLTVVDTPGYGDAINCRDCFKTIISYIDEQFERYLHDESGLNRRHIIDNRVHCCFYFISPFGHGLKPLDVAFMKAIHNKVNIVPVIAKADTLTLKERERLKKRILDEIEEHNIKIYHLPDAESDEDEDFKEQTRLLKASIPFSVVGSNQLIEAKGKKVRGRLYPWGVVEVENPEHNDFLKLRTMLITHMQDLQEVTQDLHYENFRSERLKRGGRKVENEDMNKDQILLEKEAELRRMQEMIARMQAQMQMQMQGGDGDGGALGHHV

The target of experiment [3] is T3, human septin 7 (human) (UniProt Q16181).
T3 sequence: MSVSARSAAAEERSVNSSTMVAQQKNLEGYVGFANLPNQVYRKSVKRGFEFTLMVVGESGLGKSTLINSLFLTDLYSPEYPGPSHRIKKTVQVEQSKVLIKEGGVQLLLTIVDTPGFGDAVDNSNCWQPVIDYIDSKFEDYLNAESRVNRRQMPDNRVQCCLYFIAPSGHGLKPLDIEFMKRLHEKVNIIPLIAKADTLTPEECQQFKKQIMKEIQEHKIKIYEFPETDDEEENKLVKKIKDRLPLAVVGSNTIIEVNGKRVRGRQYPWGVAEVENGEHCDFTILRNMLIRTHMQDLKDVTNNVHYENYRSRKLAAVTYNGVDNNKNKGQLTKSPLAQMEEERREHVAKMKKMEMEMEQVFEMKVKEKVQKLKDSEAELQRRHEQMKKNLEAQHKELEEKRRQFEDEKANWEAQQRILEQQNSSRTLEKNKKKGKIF

Experiment [4] deals with T4, human septin 1 (human) (UniProt Q8WYJ6).
T4 sequence: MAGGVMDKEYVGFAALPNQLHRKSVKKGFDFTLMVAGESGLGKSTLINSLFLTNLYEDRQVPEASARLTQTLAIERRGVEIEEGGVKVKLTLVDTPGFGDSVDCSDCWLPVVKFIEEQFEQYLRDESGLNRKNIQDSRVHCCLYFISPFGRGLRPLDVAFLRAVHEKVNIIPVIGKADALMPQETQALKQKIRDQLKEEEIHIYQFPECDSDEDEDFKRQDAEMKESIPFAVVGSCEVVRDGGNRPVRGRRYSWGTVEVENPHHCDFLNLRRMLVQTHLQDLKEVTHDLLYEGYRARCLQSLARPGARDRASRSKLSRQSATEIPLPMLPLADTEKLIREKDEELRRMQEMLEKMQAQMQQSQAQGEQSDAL

Experiment [5] concerns the target T5, human septin 5 (human) (UniProt Q99719).
T5 sequence: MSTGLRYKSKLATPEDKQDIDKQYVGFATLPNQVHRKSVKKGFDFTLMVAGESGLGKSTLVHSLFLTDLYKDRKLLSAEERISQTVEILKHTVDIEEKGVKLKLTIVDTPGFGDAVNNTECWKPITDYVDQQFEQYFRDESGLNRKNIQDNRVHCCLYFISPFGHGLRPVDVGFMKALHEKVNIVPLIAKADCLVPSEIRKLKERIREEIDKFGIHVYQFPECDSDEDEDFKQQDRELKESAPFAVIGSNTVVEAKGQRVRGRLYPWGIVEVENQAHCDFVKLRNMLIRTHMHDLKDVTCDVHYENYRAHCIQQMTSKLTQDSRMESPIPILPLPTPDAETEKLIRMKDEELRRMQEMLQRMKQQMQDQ

In experiment [6] the target is T6, human septin 9 N-terminal region (amino acid residues 1-269) (human) (UniProt Q9UHD8).
T6 sequence: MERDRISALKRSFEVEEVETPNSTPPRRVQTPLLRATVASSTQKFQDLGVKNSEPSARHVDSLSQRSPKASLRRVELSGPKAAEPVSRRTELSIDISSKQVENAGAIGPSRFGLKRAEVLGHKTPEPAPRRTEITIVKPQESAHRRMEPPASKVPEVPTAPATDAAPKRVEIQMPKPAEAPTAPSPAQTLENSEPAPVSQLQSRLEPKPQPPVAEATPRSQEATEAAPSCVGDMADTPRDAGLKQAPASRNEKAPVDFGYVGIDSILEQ

Experiment [7] has as its target T7, human septin 8 (human) (UniProt Q92599).
T7 sequence: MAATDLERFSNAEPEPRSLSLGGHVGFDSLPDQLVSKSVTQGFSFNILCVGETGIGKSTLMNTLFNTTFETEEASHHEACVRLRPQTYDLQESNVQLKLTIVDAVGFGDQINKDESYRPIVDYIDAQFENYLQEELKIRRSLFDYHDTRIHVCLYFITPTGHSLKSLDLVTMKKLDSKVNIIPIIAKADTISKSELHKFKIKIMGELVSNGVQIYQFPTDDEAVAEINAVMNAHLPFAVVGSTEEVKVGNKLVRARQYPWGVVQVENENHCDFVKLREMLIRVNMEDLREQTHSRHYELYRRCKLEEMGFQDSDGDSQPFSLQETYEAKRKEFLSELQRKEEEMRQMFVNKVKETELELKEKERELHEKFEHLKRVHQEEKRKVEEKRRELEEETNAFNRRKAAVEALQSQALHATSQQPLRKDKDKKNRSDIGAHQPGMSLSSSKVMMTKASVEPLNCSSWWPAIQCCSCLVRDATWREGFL

The target of experiment [8] is T8, human septin 9, transcript variant 3, protein isoform c, full length (human), Q9UHD8.
T8 chain: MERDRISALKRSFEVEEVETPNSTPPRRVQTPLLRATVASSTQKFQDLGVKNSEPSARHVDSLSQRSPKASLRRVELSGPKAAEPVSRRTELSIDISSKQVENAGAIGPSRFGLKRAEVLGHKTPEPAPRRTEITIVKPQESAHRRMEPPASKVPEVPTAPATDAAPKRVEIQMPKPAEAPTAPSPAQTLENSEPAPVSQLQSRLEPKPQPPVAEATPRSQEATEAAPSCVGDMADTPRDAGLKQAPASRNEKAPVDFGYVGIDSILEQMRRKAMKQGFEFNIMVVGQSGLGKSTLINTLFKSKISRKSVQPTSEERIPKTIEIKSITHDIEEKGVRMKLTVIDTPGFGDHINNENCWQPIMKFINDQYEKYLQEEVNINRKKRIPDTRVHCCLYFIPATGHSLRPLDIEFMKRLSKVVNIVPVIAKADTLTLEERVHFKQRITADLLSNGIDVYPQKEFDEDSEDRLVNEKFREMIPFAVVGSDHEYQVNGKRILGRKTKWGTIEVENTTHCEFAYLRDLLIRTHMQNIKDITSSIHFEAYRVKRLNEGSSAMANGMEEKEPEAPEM
Conditions: remark: other sources report otherwise.

No constants are given. Whether binding was seen depends on the method and setting. Some results given as binding are weak or reduced against the parent protein; the word gives no strength.

B1: human septin 6 (protein, UniProt Q14141-1 1-434)
chain: MAATDIARQVGEGCRTVPLAGHVGFDSLPDQLVNKSVSQGFCFNILCVGETGLGKSTLMDTLFNTKFEGEPATHTQPGVQLQSNTYDLQESNVRLKLTIVSTVGFGDQINKEDSYKPIVEFIDAQFEAYLQEELKIRRVLHTYHDSRIHVCLYFIAPTGHSLKSLDLVTMKKLDSKVNIIPIIAKADAISKSELTKFKIKITSELVSNGVQIYQFPTDDESVAEINGTMNAHLPFAVIGSTEELKIGNKMMRARQYPWGTVQVENEAHCDFVKLREMLIRVNMEDLREQTHTRHYELYRRCKLEEMGFKDTDPDSKPFSLQETYEAKRNEFLGELQKKEEEMRQMFVQRVKEKEAELKEAEKELHEKFDRLKKLHQDEKKKLEDKKKSLDDEVNAFKQRKTAAELLQSQGSQAGGSQTLKRDKEKKNNPWLCTE
For the molecule B1, the binding entry in experiment [1] was “binds”; in experiment [2], “binds”; in experiment [3], “binds”; in experiment [4] it was “binds”; in experiment [5], “binds”; in experiment [6], “no binding”.

B2: human septin 7 (protein, UniProt Q16181-1 1-437)
chain: MSVSARSAAAEERSVNSSTMVAQQKNLEGYVGFANLPNQVYRKSVKRGFEFTLMVVGESGLGKSTLINSLFLTDLYSPEYPGPSHRIKKTVQVEQSKVLIKEGGVQLLLTIVDTPGFGDAVDNSNCWQPVIDYIDSKFEDYLNAESRVNRRQMPDNRVQCCLYFIAPSGHGLKPLDIEFMKRLHEKVNIIPLIAKADTLTPEECQQFKKQIMKEIQEHKIKIYEFPETDDEEENKLVKKIKDRLPLAVVGSNTIIEVNGKRVRGRQYPWGVAEVENGEHCDFTILRNMLIRTHMQDLKDVTNNVHYENYRSRKLAAVTYNGVDNNKNKGQLTKSPLAQMEEERREHVAKMKKMEMEMEQVFEMKVKEKVQKLKDSEAELQRRHEQMKKNLEAQHKELEEKRRQFEDEKANWEAQQRILEQQNSSRTLEKNKKKGKIF
Turning to B2, the binding result in experiment [1] is “binds”; in experiment [5], “no binding”; in experiment [7] it was “binds”; in experiment [6] it was “no binding”.

B3: human septin 9, transcript variant 3, protein isoform c, full length, Q9UHD8-2 1-568 (protein)
chain: MERDRISALKRSFEVEEVETPNSTPPRRVQTPLLRATVASSTQKFQDLGVKNSEPSARHVDSLSQRSPKASLRRVELSGPKAAEPVSRRTELSIDISSKQVENAGAIGPSRFGLKRAEVLGHKTPEPAPRRTEITIVKPQESAHRRMEPPASKVPEVPTAPATDAAPKRVEIQMPKPAEAPTAPSPAQTLENSEPAPVSQLQSRLEPKPQPPVAEATPRSQEATEAAPSCVGDMADTPRDAGLKQAPASRNEKAPVDFGYVGIDSILEQMRRKAMKQGFEFNIMVVGQSGLGKSTLINTLFKSKISRKSVQPTSEERIPKTIEIKSITHDIEEKGVRMKLTVIDTPGFGDHINNENCWQPIMKFINDQYEKYLQEEVNINRKKRIPDTRVHCCLYFIPATGHSLRPLDIEFMKRLSKVVNIVPVIAKADTLTLEERVHFKQRITADLLSNGIDVYPQKEFDEDSEDRLVNEKFREMIPFAVVGSDHEYQVNGKRILGRKTKWGTIEVENTTHCEFAYLRDLLIRTHMQNIKDITSSIHFEAYRVKRLNEGSSAMANGMEEKEPEAPEM
On to B3, for which the binding entry in experiment [8] was “no binding”.
